In the supplement of paper PMC10369915 one finds enrichment score data, which are given here for 18 molecules.

The list shows a part of the results. No stated cut-off is given here; in the data, active = 3.2 or more and inactive = the rest. The signal is at background level for most entries.
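Further: displayed peptides selected on beads carrying the immobilized SH2 domain, with library peptides lacking any tyrosine serving as negative controls.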

The target of the first experiment is SHP2 C-SH2 domain E139D. In words: enrichment score (SH2-bound / input frequency) (ratio); bacterial display of known human phosphotyrosine sites (pTyr-Var adds point mutants) read by sequencing; higher = stronger binding; tyrosines were phosphorylated by kinases first. The following applies: peptide library: Human pTyr.
In the case of AVKRYNDYKLDFRRQ [SRRT_HUMAN_175], the enrichment score was inactive: 1.73.
Take ADDLNAQYERRRQEE [BBC3_HUMAN_152]: the enrichment score was inactive: 0.734.
For the molecule EDPMYSMYAKLQNQP [STAM1_HUMAN_384], the enrichment score was inactive: 1.08.
Take MNPSYDEYADSDEDQ [SSRP1_HUMAN_441]: the enrichment score was inactive: 1.08.
Take KTLVMAVYDFDRFSK [SYT1_HUMAN_230]: the enrichment score is inactive: 2.12.
On the same count and under the same terms, the same measure for SQSLTQIYALPEIPQ [STX17_HUMAN_157]: inactive: 0.759; for DQDAQDLYDAGVKRK [AXA2L_HUMAN_199]: inactive: 0.779.
For the molecule TQAVHSPYDRPGWNP [SYGP1_HUMAN_39_YA], the enrichment score was inactive: 0.81.
On to GPLDGSLYAKVKKKD [TENS1_HUMAN_366], for which the enrichment score was inactive: 0.729.
In the case of AVKRANDYKLDFRRQ [SRRT_HUMAN_175_YA], the enrichment score was inactive: 1.07.
With KDEVFSKYYTPVLAK [STA5A_HUMAN_682], the enrichment score is inactive: 1.52.
With EDSTADEYENDLGIT [SRC8_HUMAN_489_YA], the enrichment score was inactive: 1.21.
As for DFPAPPPYSAVTPPP [SYNP2_HUMAN_622], the enrichment score was inactive: 0.474.
On the same count and under the same terms, for YGVEDPEYAVTQLAQ [STML2_HUMAN_124] the value was inactive: 0.691; for KSEPEPVYIDEDKMD [STAM2_HUMAN_291], inactive: 1.15; for MEDHAGTYGLGDRKD [TAU_HUMAN_18], inactive: 0.628.
Regarding GVLPSHYYESFLEKK [STAP2_HUMAN_22], the enrichment score was inactive: 0.718.
Consider EGPGGALYARVARRE [SREC2_HUMAN_628], for which the enrichment score was inactive: 2.14.

For another experiment, the target named is SHP2 C-SH2 domain wild-type. Described as above. The following applies: peptide library: Human pTyr.
Consider AVKRYNDYKLDFRRQ [SRRT_HUMAN_175], for which the enrichment score was inactive: 1.66.
Turning to ADDLNAQYERRRQEE [BBC3_HUMAN_152], the enrichment score was inactive: 0.658.
Consider EDPMYSMYAKLQNQP [STAM1_HUMAN_384], for which the enrichment score was inactive: 2.33.
For MNPSYDEYADSDEDQ [SSRP1_HUMAN_441], the enrichment score is inactive: 1.04.
On to KTLVMAVYDFDRFSK [SYT1_HUMAN_230], for which the enrichment score was inactive: 2.26.
Regarding SQSLTQIYALPEIPQ [STX17_HUMAN_157], the enrichment score is inactive: 0.555.
In the case of DQDAQDLYDAGVKRK [AXA2L_HUMAN_199], the enrichment score was inactive: 0.803.
TQAVHSPYDRPGWNP [SYGP1_HUMAN_39_YA]: the enrichment score is inactive: 0.544.
With GPLDGSLYAKVKKKD [TENS1_HUMAN_366], the enrichment score is inactive: 0.849.
Regarding AVKRANDYKLDFRRQ [SRRT_HUMAN_175_YA], the enrichment score is inactive: 0.967.
KDEVFSKYYTPVLAK [STA5A_HUMAN_682]: the enrichment score is inactive: 3.13.
On the same count and under the same terms, the same measure for EDSTADEYENDLGIT [SRC8_HUMAN_489_YA]: inactive: 0.861; for DFPAPPPYSAVTPPP [SYNP2_HUMAN_622]: inactive: 0.516.
On to YGVEDPEYAVTQLAQ [STML2_HUMAN_124], for which the enrichment score was inactive: 0.449.
In the case of KSEPEPVYIDEDKMD [STAM2_HUMAN_291], the enrichment score was inactive: 1.28.
For the molecule MEDHAGTYGLGDRKD [TAU_HUMAN_18], the enrichment score was inactive: 0.546.
In the case of GVLPSHYYESFLEKK [STAP2_HUMAN_22], the enrichment score is inactive: 0.879.
In the case of EGPGGALYARVARRE [SREC2_HUMAN_628], the enrichment score is inactive: 0.469.

For the next experiment, the target named is SHP2 N-SH2 domain L43F. Described as above. The following applies: peptide library: Human pTyr.
As to AVKRYNDYKLDFRRQ [SRRT_HUMAN_175], the enrichment score is inactive: 1.58.
Turning to ADDLNAQYERRRQEE [BBC3_HUMAN_152], the enrichment score was inactive: 0.838.
Turning to EDPMYSMYAKLQNQP [STAM1_HUMAN_384], the enrichment score is inactive: 0.729.
On the same count and under the same terms, for MNPSYDEYADSDEDQ [SSRP1_HUMAN_441] the value was inactive: 1.11; for KTLVMAVYDFDRFSK [SYT1_HUMAN_230], inactive: 2.38; for SQSLTQIYALPEIPQ [STX17_HUMAN_157], inactive: 2.23.
In the case of DQDAQDLYDAGVKRK [AXA2L_HUMAN_199], the enrichment score was inactive: 0.725.
Turning to TQAVHSPYDRPGWNP [SYGP1_HUMAN_39_YA], the enrichment score was inactive: 0.561.
Same read-out and setting: for GPLDGSLYAKVKKKD [TENS1_HUMAN_366] the value was inactive: 0.633; for AVKRANDYKLDFRRQ [SRRT_HUMAN_175_YA], inactive: 1.1; for KDEVFSKYYTPVLAK [STA5A_HUMAN_682], inactive: 0.877.
In the case of EDSTADEYENDLGIT [SRC8_HUMAN_489_YA], the enrichment score is inactive: 1.15.
With DFPAPPPYSAVTPPP [SYNP2_HUMAN_622], the enrichment score was inactive: 0.454.
On the same count and under the same terms, the same measure for YGVEDPEYAVTQLAQ [STML2_HUMAN_124]: inactive: 0.654; for KSEPEPVYIDEDKMD [STAM2_HUMAN_291]: inactive: 1.31.
Turning to MEDHAGTYGLGDRKD [TAU_HUMAN_18], the enrichment score is inactive: 0.635.
Same read-out and setting: the same measure for GVLPSHYYESFLEKK [STAP2_HUMAN_22]: inactive: 0.785; for EGPGGALYARVARRE [SREC2_HUMAN_628]: inactive: 0.868.

For another experiment, the target named is SHP2 N-SH2 domain T42A. Described as above. The conditions noted are these: peptide library: Human pTyr.
Take AVKRYNDYKLDFRRQ [SRRT_HUMAN_175]: the enrichment score is inactive: 1.34.
As to ADDLNAQYERRRQEE [BBC3_HUMAN_152], the enrichment score was inactive: 0.882.
On the same count and under the same terms, the same measure for EDPMYSMYAKLQNQP [STAM1_HUMAN_384]: inactive: 0.715; for MNPSYDEYADSDEDQ [SSRP1_HUMAN_441]: inactive: 1.01.
The same measure, in the same setting: the same measure for KTLVMAVYDFDRFSK [SYT1_HUMAN_230]: inactive: 2.37; for SQSLTQIYALPEIPQ [STX17_HUMAN_157]: inactive: 0.546.
In the case of DQDAQDLYDAGVKRK [AXA2L_HUMAN_199], the enrichment score was inactive: 0.736.
Same read-out and setting: for TQAVHSPYDRPGWNP [SYGP1_HUMAN_39_YA] the value was inactive: 0.665; for GPLDGSLYAKVKKKD [TENS1_HUMAN_366], inactive: 0.762.
Consider AVKRANDYKLDFRRQ [SRRT_HUMAN_175_YA], for which the enrichment score was inactive: 1.31.
Turning to KDEVFSKYYTPVLAK [STA5A_HUMAN_682], the enrichment score was inactive: 1.64.
As for EDSTADEYENDLGIT [SRC8_HUMAN_489_YA], the enrichment score was inactive: 0.958.
For DFPAPPPYSAVTPPP [SYNP2_HUMAN_622], the enrichment score was inactive: 0.526.
In the case of YGVEDPEYAVTQLAQ [STML2_HUMAN_124], the enrichment score was inactive: 0.54.
For KSEPEPVYIDEDKMD [STAM2_HUMAN_291], the enrichment score is inactive: 0.932.
For the molecule MEDHAGTYGLGDRKD [TAU_HUMAN_18], the enrichment score is inactive: 0.637.
On the same count and under the same terms, the same measure for GVLPSHYYESFLEKK [STAP2_HUMAN_22]: inactive: 0.632; for EGPGGALYARVARRE [SREC2_HUMAN_628]: inactive: 0.585.

A further experiment has as its target SHP2 N-SH2 domain T52S. The description is as above. The conditions noted are these: peptide library: Human pTyr.
For the molecule AVKRYNDYKLDFRRQ [SRRT_HUMAN_175], the enrichment score was inactive: 1.41.
For the molecule ADDLNAQYERRRQEE [BBC3_HUMAN_152], the enrichment score is inactive: 0.757.
As for EDPMYSMYAKLQNQP [STAM1_HUMAN_384], the enrichment score is inactive: 0.626.
Regarding MNPSYDEYADSDEDQ [SSRP1_HUMAN_441], the enrichment score is inactive: 1.08.
On the same count and under the same terms, for KTLVMAVYDFDRFSK [SYT1_HUMAN_230] the value was inactive: 2.44.
For SQSLTQIYALPEIPQ [STX17_HUMAN_157], the enrichment score was inactive: 0.755.
Still for that read-out and setting: for DQDAQDLYDAGVKRK [AXA2L_HUMAN_199] the value was inactive: 0.734.
As for TQAVHSPYDRPGWNP [SYGP1_HUMAN_39_YA], the enrichment score was inactive: 0.652.
Turning to GPLDGSLYAKVKKKD [TENS1_HUMAN_366], the enrichment score is inactive: 0.772.
AVKRANDYKLDFRRQ [SRRT_HUMAN_175_YA]: the enrichment score was inactive: 1.1.
KDEVFSKYYTPVLAK [STA5A_HUMAN_682]: the enrichment score is inactive: 0.788.
EDSTADEYENDLGIT [SRC8_HUMAN_489_YA]: the enrichment score was inactive: 1.23.
DFPAPPPYSAVTPPP [SYNP2_HUMAN_622]: the enrichment score is inactive: 0.561.
On the same count and under the same terms, for YGVEDPEYAVTQLAQ [STML2_HUMAN_124] the value was inactive: 0.616; for KSEPEPVYIDEDKMD [STAM2_HUMAN_291], inactive: 1.18; for MEDHAGTYGLGDRKD [TAU_HUMAN_18], inactive: 0.517.
On to GVLPSHYYESFLEKK [STAP2_HUMAN_22], for which the enrichment score is inactive: 0.746.
Turning to EGPGGALYARVARRE [SREC2_HUMAN_628], the enrichment score is inactive: 0.659.

The next experiment has as its target SHP2 N-SH2 domain wild-type. The description is as above. The following applies: peptide library: Human pTyr.
With AVKRYNDYKLDFRRQ [SRRT_HUMAN_175], the enrichment score was inactive: 1.72.
On the same count and under the same terms, for ADDLNAQYERRRQEE [BBC3_HUMAN_152] the value was inactive: 0.893; for EDPMYSMYAKLQNQP [STAM1_HUMAN_384], inactive: 0.682.
Take MNPSYDEYADSDEDQ [SSRP1_HUMAN_441]: the enrichment score is inactive: 1.41.
As to KTLVMAVYDFDRFSK [SYT1_HUMAN_230], the enrichment score is inactive: 3.02.
Turning to SQSLTQIYALPEIPQ [STX17_HUMAN_157], the enrichment score is inactive: 0.638.
As for DQDAQDLYDAGVKRK [AXA2L_HUMAN_199], the enrichment score is inactive: 0.652.
Turning to TQAVHSPYDRPGWNP [SYGP1_HUMAN_39_YA], the enrichment score is inactive: 0.63.
Regarding GPLDGSLYAKVKKKD [TENS1_HUMAN_366], the enrichment score was inactive: 0.984.
AVKRANDYKLDFRRQ [SRRT_HUMAN_175_YA]: the enrichment score was inactive: 1.43.
For the molecule KDEVFSKYYTPVLAK [STA5A_HUMAN_682], the enrichment score was inactive: 1.1.
Regarding EDSTADEYENDLGIT [SRC8_HUMAN_489_YA], the enrichment score was inactive: 1.36.
For DFPAPPPYSAVTPPP [SYNP2_HUMAN_622], the enrichment score is inactive: 0.49.
In the case of YGVEDPEYAVTQLAQ [STML2_HUMAN_124], the enrichment score was inactive: 0.618.
Still for that read-out and setting: the same measure for KSEPEPVYIDEDKMD [STAM2_HUMAN_291]: inactive: 1.05.
As to MEDHAGTYGLGDRKD [TAU_HUMAN_18], the enrichment score is inactive: 0.733.
For GVLPSHYYESFLEKK [STAP2_HUMAN_22], the enrichment score was inactive: 0.667.
Still for that read-out and setting: the same measure for EGPGGALYARVARRE [SREC2_HUMAN_628]: inactive: 0.385.
